# Test results: PubChem BioAssay (NCATS)
# “And” between values parts separate entries of the source, which are not always exact repeats. Identical values can stand only once. This list was built around the results that the source calls inconclusive (neither active nor inactive); the mix of calls is not that of the screen. Potencies beside an inconclusive call are fits to weak or partial responses and may not hold up. The source made the active and inactive calls. The call rests on the fitted dose curve; in most records, active means well fitted cell-killing curve with a large enough effect; inconclusive means small, poorly fitted or top-dose-only effect, or effect the other way; inactive means no such curve, though single readings can be large or run the other way.
# Experiment: Viability qHTS for spleen associated tyrosine kinase inhibitor (SYKi) drug resistant MV4-11 cells (AID 1963824); further: nearly all actives have a fitted effect of over 35% in size
# Details: SYKi-resistant MV4-11 viability, CellTiter-Glo, 72 h; series mostly up to 45 µM; viability, % of control: at the top concentration
# Text: Department of Medicine, Hematology/Oncology
# University Hospital Frankfurt, Germany.
# Trials have shown promising clinical activity of the selective SYK inhibitor entospletinib in patients with high expressing HOXA9/MEIS1 acute leukemias. As the development of resistance mechanisms is a common problem in the use of targeted drugs, we performed a chemical library screen to identify drug sensitivities in SYK inhibitor resistant AML cells. […] Glucocorticoids are potent immunosuppressants which work in part by inhibiting the transcription of cytokine genes.
# Described herein is a viability screen to look for activity in the SYK inhibitor drug resistant cell line against four NCATS compound libraries (MIPE 5.0, NPC, NPACT, and Kinase) totaling 11372 compounds. Active hits were reacquired for confirmation and further secondary assay testing.
# SEQUENCE No. (e.g., 1, 2, 3, etc.); […] (e.g., Cells, Incubation, Reagent, etc.); VALUE; DESCRIPTION.
# 1; Media; 2uL; white, solid-bottom Corning assay plate.
# 2; Compounds; 23nL; Echo acoustic dispenser.
# 3; Cell; 5uL; 500 cells per well.
# 4: Incubation; 72hr; 37 C, 5% CO2, 95% humidity.
# 5; Reagent; 3uL; CellTiter-Glo reagent (Promega).
# 6; Incubation; 10min; room temperature.
# 7; Detection; Luminescence; ViewLux plate reader (PerkinElmer).
# NOTES (numbers refer to Sequence numbers above
# 1. Quantitative high-throughput screening (qHTS) of small molecule compounds was conducted on drug resistant SYKi MV4-11 cell line.
# 2. Twenty-three nanoliter of small molecule compounds were added to each assay plates using the Echo acoustic dispenser (Beckman Coulter).
# 3. Cells were seeded into the assay plates at a final density of 500 cells in 5uL of media per well using the Multidrop Combi dispenser.
# 4. Plates were covered with stainless steel gasketed lids and incubated for 72 hours at standard cell culture conditions.
# 5. Viability was assessed by adding 3uL of CellTiter-Glo detection reagent (Promega).
# 6. Plates were covered with gasket lids and incubated for 10 minutes at room temperature.
# 7. Luminescence was measured on a ViewLux plate reader (PerkinElmer).
# Potency means the concentration at half of the fitted maximal effect; tags describe the fitted curve by direction and shape.
Structure (SMILES),Potency,"viability, % of control"
C=C(C(=O)O)C1CC(OC(=O)CC(C)CC)C2(C)CCCC(=C)C2C1 (stereo not given),"inconclusive: 0.904 µM [cytotoxic, full curve, poor fit]",–
CCc1cc(CC[C@]2(C3CCCC3)CC(O)=C(Cc3nc4nc(C)cc(C)n4n3)C(=O)O2)cc(CC)n1,"inconclusive: 16.4 µM [cytotoxic, single point]",–
Cc1ccc2ccc(Cl)cc2n1,–,inactive: 104%
CC1(C)CCC2(C(=O)O)C(O)CC3(C)C(=CCC4C5(C)CCC(OC6OC(CO)C(O)C(O)C6OC6OC(CO)C(O)C(O)C6OC6OCC(O)(CO)C6O)C(C)(C)C5CCC43C)C2C1 (stereo not given),–,inactive: 84.8% [at 9.25 µM]
COc1ccc(-c2ccn(CC[C@](C)(C(=O)NO)S(C)(=O)=O)c(=O)c2)c(F)c1,"inconclusive: 23.1 µM [cytotoxic, single point]",–
c1cc(NCCc2c[nH]c3ccccc23)cc(Nc2ccncc2)c1,active: 0.651 µM,–
CN(C)CC/C=C1\c2ccccc2COc2ccccc21,–,inactive: 68.2%
CC(=O)N1CCN(c2ccc(OC[C@H]3CO[C@](Cn4ccnc4)(c4ccc(Cl)cc4Cl)O3)cc2)CC1,"inconclusive: 5.25 µM [cytotoxic, full curve, poor fit]",–
CNC(=O)c1c(-c2ccc(F)cc2)oc2cc(N(CCO)S(C)(=O)=O)c(C3CC3)cc12,"inconclusive: 9.2 µM [cytotoxic, partial curve, poor fit]",–
C=CC(C)(C)C12CC3C(=O)N4C(CC5(C(C)(C)C=C)c6ccccc6NC45)C(=O)N3C1Nc1ccccc12 (stereo not given),"inconclusive: 11.2 µM [cytotoxic, partial curve]",–
Cc1c(Nc2ncccc2C(=O)O)cccc1C(F)(F)F,"inconclusive: 33.5 µM [cytotoxic, single point]",–
COc1ccc(Oc2c(Cl)cnn(-c3cc(C)cc(C)c3)c2=O)cc1,active: 2.06 µM,–
C=C(C(=O)O)C1CC(O)C2(C)CCCC(C)(O)C2C1 (stereo not given),–,inactive: 101%
Cc1c(NC(=O)c2cc(C(N)=O)nc3cc(F)ccc23)c(C(F)(F)F)nn1Cc1ccc(C#N)cc1,"inactive and inconclusive: 14.8 µM [cytotoxic, partial curve]",–
C=CC(=O)N1C[C@H](Nc2ncnc3[nH]ccc23)CC[C@@H]1C,"inconclusive: 14.8 µM [cytotoxic, partial curve]",–
S=c1ssc2c1CCC2,"inconclusive: 16.4 µM [cytotoxic, partial curve]",–
Cc1cc(C)c(-n2cc(C)c3c(Cl)nc(C)nc32)c(C)c1,"inconclusive: 23.1 µM [cytotoxic, partial curve]",–
CCn1c(=O)c2c(nc(/C=C/c3ccc(OC)c(OC)c3)n2C)n(CC)c1=O,"inconclusive: 20.9 µM [cytotoxic, partial curve]",–
COc1ccc(Cl)cc1-c1cc(=O)[nH]c(=S)n1CC(N)=O,"inconclusive: 0.0033 µM [rising, full curve, poor fit]",–
CCS(=O)(=O)c1cccc(-c2cc(C(=O)NC3CCN(C)CC3)c(C)c3[nH]c4ncc(C)cc4c23)c1,active: 36 nM and active: 66.1 nM,–

Structure (SMILES),Potency,"viability, % of control"
CC(=O)Nc1ccc(O)cc1,"inconclusive: 26.3 µM [cytotoxic, single point]",–
CC(C)=CCCC1(C)C=Cc2c(c(C)cc3c2[nH]c2ccccc23)O1 (stereo not given),"inconclusive: 10.1 µM [cytotoxic, partial curve, poor fit]",–
Cc1cn([C@H]2C[C@H](F)[C@@H](CO)O2)c(=O)[nH]c1=O,"inconclusive: 3.35 µM [cytotoxic, partial curve, poor fit]",–
CC(C)CC(=O)OC[C@H]1O[C@@](COC(=O)CC(C)C)(O[C@H]2O[C@H](CO)[C@@H](O)[C@H](O)[C@H]2OC(=O)CC(C)C)[C@@H](OC(=O)CC(C)C)[C@@H]1O,"inconclusive: 6.11 µM [cytotoxic, single point]",–
O=C(c1ccco1)N1CCNCC1,–,inactive: 92.4%
Cc1ccc(CN2CCNCC2)cc1NC(=O)CNc1ccc(F)c(F)c1,–,inactive: 78%
CC(=O)NC(C(=O)OC1CCC(C)(C)C2CC=C3C(=O)OCC3C12C)C(C)C (stereo not given),"inconclusive: 20.2 µM [cytotoxic, single point]",–
C=C1/C(=C\C=C2/CCC[C@]3(C)[C@@H]([C@H](C)CCCC(C)(C)O)CC[C@@H]23)C[C@@H](O)C[C@@H]1O,"inconclusive: 0.0263 µM [cytotoxic, full curve]",–
CCCCOc1ccc(C(=O)Nc2ccc(F)cc2F)cc1,"inconclusive: 20.6 µM [cytotoxic, single point]",–
CCOC(=O)c1ccc(OCCN2C[C@H](O)[C@@H](O)[C@H](O)[C@H]2CO)cc1,–,inactive: 99.1%
CC(C)S(=O)(=O)Nc1ccc(F)c(C(=O)c2c[nH]c3ncc(-c4cccnc4)cc23)c1F,active: 2.91 µM,–
O=C(O)CCCCCC[C@H]1C(=O)NC(=O)N1CC[C@@H](O)C1CCCCC1,"inconclusive: 1.84 µM [cytotoxic, full curve]",–
CC(C)(C)c1ccc(C(=O)Nc2cc(Cl)c(Br)cc2C(=O)O)cc1,active: 16.4 µM,–
O=C(O)C(Cc1ccccc1)NC(=O)C1CCCN1 (stereo not given),"inconclusive: 0.651 µM [cytotoxic, full curve, poor fit]",–
COC(=O)/C=C(/C)N,–,inactive: 91.8%
CC(=O)OC1CC(C)C2(CCC3(CC(=O)OC3O)O2)C2(C)CCCC(C)(C)C12 (stereo not given),active: 10 µM,–
C=C(C)[C@@H]1CC[C@]2(C(=O)O)CC[C@]3(C)[C@H](CCC4[C@@]5(C)CCC(=O)C(C)(C)C5C(O)C[C@]43C)C12 (stereo not given in full),"inconclusive: 3.55 µM [cytotoxic, partial curve]",–
CCn1cc(C(=O)O)c(=O)c2cnc(N3CCCC3)nc21,–,inactive: 103% [at 9.25 µM]
COc1ccc(C2(O)c3c(ccc4c3OC(C)(CCC=C(C)C)C=C4)NC(=O)C2OC)cc1 (stereo not given),"inconclusive: 0.0071 µM [rising, full curve, poor fit]",–
COc1cc2c3c(cc4ccccc4c3c1O)NC2=O,"inconclusive: 18.4 µM [cytotoxic, partial curve]",–
